Laboratory results published in ChEMBL document CHEMBL4888484, “Replenishing the malaria drug discovery pipeline: Screening and hit evaluation of the MMV Hit Generation Library 1 (HGL1) against asexual blood stage Plasmodium falciparum ,using a nano luciferase reporter read-out” (2022).
Among all 4,800 compounds or so, about 420 (8.8%) showed an effect of 50% or more. The list shows a part of the results.

The compounds below were run on Plasmodium falciparum (assay: Confirmatory screen in NF54 nanoGlo assay, in single point, at 2uM, 72h). Conditions: timepoint 72 hour.
Type: functional, Erythrocyte

Row | SMILES | % Inhibition [%]
1 | Cc1ccnc(N[C@H](c2cccs2)c2cc(C)sc2NC(=O)c2ccccc2)c1 | -3
2 | Cc1cc2sc(-c3ccccc3)c([O-])[n+]2cn1 | 0
3 | CNCCCNC(=O)c1ccc(Br)cc1C | 5
4 | N[C@@H](C(=O)Nc1nnc(Cc2ccsc2)s1)c1ccccc1 | 2
5 | O=C(Cn1cnc2nc(N3CCCCC3)sc2c1=O)Nc1cc(Cl)cc(Cl)c1 | -3
6 | O=C(NCCCn1cccn1)c1cncc(Br)c1 | -2
7 | CNC(=O)[C@H]1CN(S(=O)(=O)c2cccs2)CC12CCCCC2 | -11
8 | Cc1cc(NC(=O)Cn2c(=O)n(CC(C)C)c(=O)c3sccc32)no1 | -13
9 | CC(NS(C)(=O)=O)C(=O)N1CCC(F)(c2cc(F)cc(F)c2)C1 (stereo not drawn) | -1
10 | CC1(C)CC[C@H](CNC(=O)c2cnn(-c3ccc(F)cc3)n2)O1 | 3
11 | CN(C)c1noc(CN2CCc3ccc(F)cc3C2)n1 | 25
12 | CC[C@H]1Cn2c(C(=O)NC3CCCCC3)cc3c(Cl)ccc(c32)O1 | -7
13 | Cc1ccc(C(=O)C[n+]2cc(-c3ccc(Br)cc3)n(C)c2N)cc1 | -18
14 | COc1ccc2c(c1)CCN2S(=O)(=O)c1ccc2c(c1)OCCO2 | -4
15 | CCc1c2c(=O)n(-c3nc4ccccc4s3)[nH]c2cc(=O)n1CCCN1CCOCC1 | 43
16 | COc1ccc(C2=NC3=S(N2c2ccccc2)N(C(C)=O)C(C(Cl)(Cl)Cl)N3c2ccccc2)cc1 (stereo not drawn) | 0
17 | CCC(CC)C(=O)Nc1cccc(O)c1 | 5
18 | Nc1nc(-c2ccccc2)c2cc3c(nn12)C[C@H](c1ccc(F)cc1)CC3=O | 1
19 | Cc1onc(C(=O)NCc2cnn(C)c2C)c1COc1cccc(C(F)(F)F)c1 | -9
20 | COCc1c(C(=O)N2CCC[C@@H]2CCc2ncc(C)n2C(C)C)noc1C | -3
21 | CCNc1nc(C)cc(Nc2ccc(NS(=O)(=O)c3c(C)noc3C)cc2)n1 | 92
22 | CCOc1ccc2sc(NC(=O)Cn3cnc4nc(N5CCCCC5)sc4c3=O)nc2c1 | -5
23 | CC(C)(C)Nc1nc2nonc2nc1NC1CCCCC1 | -1
24 | Cn1nc(N)c2cc(C3OCCCO3)ccc21 | -10
25 | CC(C)c1cc(=O)[nH]c(-n2nc(C3CC3)cc2NC(=O)Cc2ccc(Cl)cc2)n1 | 69
26 | O=C(NCCCN1CCOCC1)c1ccc(-c2cnc(NC3CCCCC3)nc2)cc1 | -8
27 | CCc1ccc(CN2CCN(Cc3cccc(Oc4ccccc4)c3)CC2)cc1 | 2
28 | CCN1CCC(CCNC(=O)c2cc3c(s2)N(CC)CCCC3)CC1 | -7
